{
  "source": "paper PMC9911399",
  "about": "“Two distinct binding modes provide the RNA-binding protein RbFox with extraordinary sequence specificity”",
  "binders": {"B1": {"name": "CAUCCUU (DNA:RNA)", "RNA": "GGGAGACCGGAAUUCAGAUUGUCCCAUCCUUUUAAAUCCCGUCGUAGCCACCA", "DNA 1": "CAATCTGAATTCCGGTCTCCC", "DNA 2": "TGGTGGCTACGACGGGATT"}, "B2": {"name": "CAAUCCC (DNA:RNA)", "RNA": "B1 RNA with U27A, C28U, U30C, U31C", "DNA 1": "CAATCTGAATTCCGGTCTCCC", "DNA 2": "TGGTGGCTACGACGGGATT"}, "B3": {"name": "GGGUUAU (DNA:RNA)", "RNA": "B1 RNA with C25G, A26G, U27G, C28U, C29U, U30A", "DNA 1": "CAATCTGAATTCCGGTCTCCC", "DNA 2": "TGGTGGCTACGACGGGATT"}, "B4": {"name": "CAUCUCU (DNA:RNA)", "RNA": "B1 RNA with C29U, U30C", "DNA 1": "CAATCTGAATTCCGGTCTCCC", "DNA 2": "TGGTGGCTACGACGGGATT"}, "B5": {"name": "GCACACG (DNA:RNA)", "RNA": "B1 RNA with C25G, A26C, U27A, C29A, U30C, U31G", "DNA 1": "CAATCTGAATTCCGGTCTCCC", "DNA 2": "TGGTGGCTACGACGGGATT"}, "B6": {"name": "AGGAUAG (DNA:RNA)", "RNA": "GGGAGACCGGAAUUCAGAUUGUCCAGGAUAGUUAAAUCCCGUCGUAGCCACCA", "DNA 1": "CAATCTGAATTCCGGTCTCCC", "DNA 2": "TGGTGGCTACGACGGGATT"}, "B7": {"name": "GUUAUAA (DNA:RNA)", "RNA": "B6 RNA with A25G, G26U, G27U, G31A", "DNA 1": "CAATCTGAATTCCGGTCTCCC", "DNA 2": "TGGTGGCTACGACGGGATT"}, "B8": {"name": "GUGGGUU (DNA:RNA)", "RNA": "B1 RNA with C25G, A26U, U27G, C28G, C29G", "DNA 1": "CAATCTGAATTCCGGTCTCCC", "DNA 2": "TGGTGGCTACGACGGGATT"}, "B9": {"name": "AUGCUCC (DNA:RNA)", "RNA": "B6 RNA with G26U, A28C, A30C, G31C", "DNA 1": "CAATCTGAATTCCGGTCTCCC", "DNA 2": "TGGTGGCTACGACGGGATT"}, "B10": {"name": "GUGGUUG (DNA:RNA)", "RNA": "B6 RNA with A25G, G26U, A28G, A30U", "DNA 1": "CAATCTGAATTCCGGTCTCCC", "DNA 2": "TGGTGGCTACGACGGGATT"}, "B11": {"name": "AGUGAGU (DNA:RNA)", "RNA": "B6 RNA with G27U, A28G, U29A, A30G, G31U", "DNA 1": "CAATCTGAATTCCGGTCTCCC", "DNA 2": "TGGTGGCTACGACGGGATT"}, "B12": {"name": "GCAGUCA (DNA:RNA)", "RNA": "B6 RNA with A25G, G26C, G27A, A28G, A30C, G31A", "DNA 1": "CAATCTGAATTCCGGTCTCCC", "DNA 2": "TGGTGGCTACGACGGGATT"}, "B13": {"name": "CUGGCAU (DNA:RNA)", "RNA": "B1 RNA with A26U, U27G, C28G, U30A", "DNA 1": "CAATCTGAATTCCGGTCTCCC", "DNA 2": "TGGTGGCTACGACGGGATT"}, "B14": {"name": "GGGAGAC (DNA:RNA)", "RNA": "B6 RNA with A25G, U29G, G31C", "DNA 1": "CAATCTGAATTCCGGTCTCCC", "DNA 2": "TGGTGGCTACGACGGGATT"}, "B15": {"name": "CCUAAGG (DNA:RNA)", "RNA": "B6 RNA with A25C, G26C, G27U, U29A, A30G", "DNA 1": "CAATCTGAATTCCGGTCTCCC", "DNA 2": "TGGTGGCTACGACGGGATT"}, "B16": {"name": "CAAAUAU (DNA:RNA)", "RNA": "B6 RNA with A25C, G26A, G27A, G31U", "DNA 1": "CAATCTGAATTCCGGTCTCCC", "DNA 2": "TGGTGGCTACGACGGGATT"}, "B17": {"name": "CGCAUUU (DNA:RNA)", "RNA": "B6 RNA with A25C, G27C, A30U, G31U", "DNA 1": "CAATCTGAATTCCGGTCTCCC", "DNA 2": "TGGTGGCTACGACGGGATT"}, "B18": {"name": "AUCUUCG (DNA:RNA)", "RNA": "B6 RNA with G26U, G27C, A28U, A30C", "DNA 1": "CAATCTGAATTCCGGTCTCCC", "DNA 2": "TGGTGGCTACGACGGGATT"}, "B19": {"name": "CCGUUUU (DNA:RNA)", "RNA": "B1 RNA with A26C, U27G, C28U, C29U", "DNA 1": "CAATCTGAATTCCGGTCTCCC", "DNA 2": "TGGTGGCTACGACGGGATT"}, "B20": {"name": "AGCAGGA (DNA:RNA)", "RNA": "B6 RNA with G27C, U29G, A30G, G31A", "DNA 1": "CAATCTGAATTCCGGTCTCCC", "DNA 2": "TGGTGGCTACGACGGGATT"}, "B21": {"name": "ACUGACG (DNA:RNA)", "RNA": "B6 RNA with G26C, G27U, A28G, U29A, A30C", "DNA 1": "CAATCTGAATTCCGGTCTCCC", "DNA 2": "TGGTGGCTACGACGGGATT"}, "B22": {"name": "UACACGG (DNA:RNA)", "RNA": "B6 RNA with A25U, G26A, G27C, U29C, A30G", "DNA 1": "CAATCTGAATTCCGGTCTCCC", "DNA 2": "TGGTGGCTACGACGGGATT"}, "B23": {"name": "CUCCGAU (DNA:RNA)", "RNA": "B1 RNA with A26U, U27C, C29G, U30A", "DNA 1": "CAATCTGAATTCCGGTCTCCC", "DNA 2": "TGGTGGCTACGACGGGATT"}, "B24": {"name": "UAGGAUA (DNA:RNA)", "RNA": "B1 RNA with C25U, U27G, C28G, C29A, U31A", "DNA 1": "CAATCTGAATTCCGGTCTCCC", "DNA 2": "TGGTGGCTACGACGGGATT"}, "B25": {"name": "GCGAGAU (DNA:RNA)", "RNA": "B6 RNA with A25G, G26C, U29G, G31U", "DNA 1": "CAATCTGAATTCCGGTCTCCC", "DNA 2": "TGGTGGCTACGACGGGATT"}, "B26": {"name": "ACAGAGG (DNA:RNA)", "RNA": "B6 RNA with G26C, G27A, A28G, U29A, A30G", "DNA 1": "CAATCTGAATTCCGGTCTCCC", "DNA 2": "TGGTGGCTACGACGGGATT"}, "B27": {"name": "UAACGGG (DNA:RNA)", "RNA": "B1 RNA with C25U, U27A, C29G, U30G, U31G", "DNA 1": "CAATCTGAATTCCGGTCTCCC", "DNA 2": "TGGTGGCTACGACGGGATT"}, "B28": {"name": "CCACCCU (DNA:RNA)", "RNA": "B1 RNA with A26C, U27A, U30C", "DNA 1": "CAATCTGAATTCCGGTCTCCC", "DNA 2": "TGGTGGCTACGACGGGATT"}, "B29": {"name": "CUCGAAC (DNA:RNA)", "RNA": "B6 RNA with A25C, G26U, G27C, A28G, U29A, G31C", "DNA 1": "CAATCTGAATTCCGGTCTCCC", "DNA 2": "TGGTGGCTACGACGGGATT"}, "B30": {"name": "GAUUUGG (DNA:RNA)", "RNA": "B6 RNA with A25G, G26A, G27U, A28U, A30G", "DNA 1": "CAATCTGAATTCCGGTCTCCC", "DNA 2": "TGGTGGCTACGACGGGATT"}, "B31": {"name": "UAAUACG (DNA:RNA)", "RNA": "B6 RNA with A25U, G26A, G27A, A28U, U29A, A30C", "DNA 1": "CAATCTGAATTCCGGTCTCCC", "DNA 2": "TGGTGGCTACGACGGGATT"}},
  "note": "Residue numbers refer to the chain shown, from its start. Some of the results follow.",
  "data": [
    {"molecular_target": "T1, RBFOX1 RRM RbFoxmut (Fox-RRM*) (Homo sapiens, UniProt Q9NWB1 109-208, R118D;E147R;N151S;E152T)", "T1 sequence": "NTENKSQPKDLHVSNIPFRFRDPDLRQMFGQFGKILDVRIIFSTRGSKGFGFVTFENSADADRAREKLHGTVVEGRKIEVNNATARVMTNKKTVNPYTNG", "assay": "EMSA; HiTS-Eq, 1 nM pool, 10 min; buffer printed only for the single-RNA assays: 10 mM Tris pH 7.5, 150 mM NaCl, 3.4 mM EDTA, 0.001% NP-40, 30 C", "details": "tags: His6 N-terminal (pET28a); label: 5' 32P", "procedure,_shortened": "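Purified RbFox RRM (wild type or mutant) was equilibrated for 10 min in 50 µL with 1 nM of a 5′-radiolabelled pool of RNA with 7 randomized nucleotides, its flanks annealed to DNA oligonucleotides, across increasing protein concentrations. Free RNA was separated by 8% native PAGE, excised, reverse-transcribed, PCR-barcoded and sequenced on an Illumina HiSeq 2500. Relative association constants came from read-count changes of each variant against the control reaction, normalised to the cognate motif.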", "values": [
      {"binder": "B1", "binding signal": "0.11 KA relative to UGCAUGU"},
      {"binder": "B2", "binding signal": "0.0667 KA relative to UGCAUGU"},
      {"binder": "B3", "binding signal": "0.112 KA relative to UGCAUGU"},
      {"binder": "B4", "binding signal": "0.0757 KA relative to UGCAUGU"},
      {"binder": "B5", "binding signal": "0.129 KA relative to UGCAUGU"},
      {"binder": "B6", "binding signal": "0.119 KA relative to UGCAUGU"},
      {"binder": "B7", "binding signal": "0.17 KA relative to UGCAUGU"},
      {"binder": "B8", "binding signal": "0.132 KA relative to UGCAUGU"},
      {"binder": "B9", "binding signal": "0.0752 KA relative to UGCAUGU"},
      {"binder": "B10", "binding signal": "0.737 KA relative to UGCAUGU"},
      {"binder": "B11", "binding signal": "0.179 KA relative to UGCAUGU"},
      {"binder": "B12", "binding signal": "0.062 KA relative to UGCAUGU"},
      {"binder": "B13", "binding signal": "0.123 KA relative to UGCAUGU"},
      {"binder": "B14", "binding signal": "0.0799 KA relative to UGCAUGU"},
      {"binder": "B15", "binding signal": "0.0711 KA relative to UGCAUGU"},
      {"binder": "B16", "binding signal": "0.0969 KA relative to UGCAUGU"},
      {"binder": "B17", "binding signal": "0.133 KA relative to UGCAUGU"},
      {"binder": "B18", "binding signal": "0.104 KA relative to UGCAUGU"},
      {"binder": "B19", "binding signal": "0.067 KA relative to UGCAUGU"},
      {"binder": "B20", "binding signal": "0.0735 KA relative to UGCAUGU"},
      {"binder": "B21", "binding signal": "0.0933 KA relative to UGCAUGU"},
      {"binder": "B22", "binding signal": "0.0772 KA relative to UGCAUGU"},
      {"binder": "B23", "binding signal": "0.0893 KA relative to UGCAUGU"},
      {"binder": "B24", "binding signal": "0.0533 KA relative to UGCAUGU"},
      {"binder": "B25", "binding signal": "0.112 KA relative to UGCAUGU"},
      {"binder": "B26", "binding signal": "0.0886 KA relative to UGCAUGU"},
      {"binder": "B27", "binding signal": "0.0757 KA relative to UGCAUGU"},
      {"binder": "B28", "binding signal": "0.0678 KA relative to UGCAUGU"},
      {"binder": "B29", "binding signal": "0.0743 KA relative to UGCAUGU"},
      {"binder": "B30", "binding signal": "0.0887 KA relative to UGCAUGU"},
      {"binder": "B31", "binding signal": "0.0983 KA relative to UGCAUGU"}
    ]}
  ]
}
